Test results taken from the supplement of paper PMC10681739.
The full ranking holds about 2,700 sequences; the median of “arbitrary fluorescence units” is about 4,100, and the highest 2% start at about 54,000. The list shows a part of the results.

molecular target: T1, ETS1 (UniProt P14921); test: ETS1 binding intensity (PBM fluorescence) (arbitrary fluorescence units); higher = stronger binding; details: ETS1 concentration 10 nM
T1 sequence: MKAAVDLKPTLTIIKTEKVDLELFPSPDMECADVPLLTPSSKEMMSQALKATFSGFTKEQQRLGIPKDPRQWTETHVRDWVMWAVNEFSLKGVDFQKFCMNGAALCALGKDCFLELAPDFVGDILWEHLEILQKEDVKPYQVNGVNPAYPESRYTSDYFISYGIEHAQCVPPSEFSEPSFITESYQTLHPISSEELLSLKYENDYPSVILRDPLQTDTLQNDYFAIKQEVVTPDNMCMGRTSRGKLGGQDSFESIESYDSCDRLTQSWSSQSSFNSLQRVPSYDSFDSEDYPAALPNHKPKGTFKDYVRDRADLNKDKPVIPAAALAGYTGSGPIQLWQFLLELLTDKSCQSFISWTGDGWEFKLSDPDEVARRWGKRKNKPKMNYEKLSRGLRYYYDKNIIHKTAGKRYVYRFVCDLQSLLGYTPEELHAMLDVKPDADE
Experimental: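 gcPBM on wild-type 36-bp genomic probes with two neighbouring ETS1 sites (4-24 bp apart). Recombinant human ETS1 (10 nM) was detected with anti-ETS1 antibody fluorescence. Values are medians over 3 replicate spots. The probes sit in constant array flanks that are not printed.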

Row | Sequence | ETS1 binding intensity
1 | GAGGCCGGATGTGAGTGGAGCGGCCATTTCCTGTTT | 28400
2 | GATTAAAGGGATGTGACCCAGTTACTTCCTTTGCCC | 453
3 | ACGTGCGCGGAAATGGCACGCCCGTTTCCGTGTGAA | 1400
4 | AGCCGGCTTCCGTGAGGTACGTCTACTTCCGGTTAA | 20200
5 | CCTGAAACATACAGGAAAGGGAATTCTGGGAAACGT | 345
6 | GCCACGGGGAGTCCGGAAGGAAGCCACTGCCTGGGC | 633
7 | CGCACCGCGCTTCCTCCCTTTCTTTCCCTTCCTGCG | 5430
8 | CGCCGCCGACAAGCGGAACATCCTCCGTACACGTCC | 356
9 | CTGTCTCAGGAAACGGCGGCCGATTTCCTGTCTCTG | 4790
10 | GGCGCCGCCCCCGGAAGTACTTCCCCTTAAAGGCTG | 19600
11 | TATATAAACAGGAAGGAGCAGATTTCCTTTCTGAAG | 4860
12 | CGCCGCATCCGGTAGCGAGAGTTCAACTTCCTGACT | 56600
13 | GGCGCCGGAAGTGAGCTGCGCAGCGCCGGAAGCGGC | 32400
14 | CAGGCGCTGGCAGGATTGCGTTTCCGCCCAAGGCCA | 1670
15 | ACAATGAGAGGAAATGGGGCTGCAGGAAATGGCCAT | 2770
16 | AAGTCAGGAAACAACAGATGCTACAGAGGATGTGGA | 360
17 | AGGCAGGGGAAATGTCTTTACCAGCTTCCTCCTGGT | 248
18 | ACGGCGGGAAGTTAGGGGCTAGACTGGGAAGTGGGG | 452
19 | AAAGCAGGAAACAACAGATGCTAGAGAGGATGTGGA | 1650
20 | CTAAGCCAGAGGAAGTGCTTGAGGAAGTAATGTGTT | 1110
21 | GGTACACAGGATGTCTCAGTTTTACTTCCTACAGCT | 4680
22 | GACCGCGCTCTACTTCCTGATCCGGGCGTTTAGGTG | 6250
23 | ACAAGAAAACGGTTTCCGGTTTCCGTCTTCAATTTG | 32000
24 | CAGGGCCTCATCCGGGTCAGAGCCGGAACCTGGGGA | 4230
25 | GGCCACATCCTGCTCACTCACTCAGTTTCCTGCTAG | 34400
26 | GAAAGAGAAAGGAAATAGAGCAAGGATGTGCCCGGT | 1290
27 | CAGCAGAGCTTCCGGTCTTACCCAGGAAGTCTACAC | 52000

Row | Sequence | ETS1 binding intensity
28 | CCAGCAGGAAGCCACCCTGACTGAACTTCCGGGGGA | 6030
29 | ACTGGGAATCGGATGTGTCTCATATCCTCTGATTCT | 722
30 | TCAGTGGGCGGAAGAGGTGGCCCCGGATGCTGCGGC | 1430
31 | CAGCCAGCAGGAAGCCAGCTAACAGGAAGGTAACGC | 1880
32 | AGTAATAGAAAACAGGAAGGAAGTGGGTTTGTAAGA | 1430
33 | TCAGAAGGAAGTGTGTGACCAAGGAGAGGAAATTAG | 554
34 | AAAGCTCTTATTTCCCAGGGCTTCCGTTTCCGTATT | 1310
35 | TGGGACAGGAAGTGAAAGAGACCACATCCTCTTGAA | 16900
36 | AGCAGAGGAGGAAATGAAGACACAGGAAAGTCAGGT | 904
37 | TTCATTTCCGGCGGCGGAGGCGGCAGTTTCCTAAGC | 73000
38 | TTGTTTGGGAAATGGCAGAGGGACCTTCCTGTTAGG | 241
39 | CAGGTTGTGGGAGGAAGAAAGGAAGTGGCTTGGCTA | 502
40 | GCCCCGGAACAAGATCTGGGGAGGGACAGGAAGTGT | 2060
41 | GTCCCAGGAAGAAGTGCATGCCTAGCTTCCTGCCAG | 1060
42 | TCCGCCGGAAGCCGGTCAGCGCCAGCCGGAAGCCCC | 5560
43 | GGTGATACAGGAAACTGTCTTGTCTTCCTCCCCTGT | 2960
44 | CGCCCATTTCCTGAACATGCCCCCTTTCCTGCCCAA | 9930
45 | TTCCTCAGGGAAGTTCGGGTGAGAGGAAGTGCCTGC | 228
46 | CACACTTCCGGGTCCCATGCCAGTTGCATCCGCGGT | 45900
47 | CAGTGAGTAGGGAAGTGGAGTGTTTCCTGACGGTTG | 281
48 | TGGCTGAGAGGAAGTTCAGGAGGGGAAGGATGTGGT | 1060
49 | GCAGAGAAAAGGCAGGAAGGAAGTGGACAAACTTGC | 1370
50 | TGAGCTGTGTTTCCGGTCTTACATCCTTCTCAACAG | 31700
51 | TAGGCGGGGTTCCGGCTTCTCCAAGGAAGTGGGGCG | 2500
52 | GTCCGGAAATAGAGGCGCACATTGGGAGGGAAATGC | 10100
53 | CTTGGACTTCCGCCTCCCGGCCTCCGGAAGGCAGTG | 26200
54 | TGGCTAGACAGACTTCCGCCATCCTGACTCCCGCCC | 13800

Row | Sequence | ETS1 binding intensity
55 | GCGCCACTTCCGGCAGCGAAGTCACTTCCGCGGAGG | 57600
56 | GCAGTCAGGCGGAAACGGCCCCTTTCCTGCCTCCTT | 4290
57 | GGGTCTTCCGGCCCTCTCGAAAATCATTTCCGGCAT | 22500
58 | ACCAGGGCTGCTTCCTCACATTTCCGGTCCTGAAAA | 27700
59 | GCCTGTGGTGCCTTCCGCAGCGGAAATGGCGCGCCG | 3410
60 | GGCCTCCACAGGAAGTGGCAAAGGAAGCAGCTTTCA | 16700
61 | GGCTGGGGCGGATGCCGGGGCTGTTCCGGGCCCTCC | 1230
62 | GAAGGGATCCGCCGGGGCGCACCCTCTTCCGTCCCC | 209
63 | GCACCAAGGGAAGTGGTTAAAACAGGAAGACCCGCT | 919
64 | TGAGAGAGGAAGCATGAGAGAGAGGAGGAAGTACCA | 354
65 | AACACCCTTCCGCCATGACCCAATTCGGAAGTGCCA | 4240
66 | CCCGCGCTTCCGGAGGCGGAGAGAGCGGAAAGGGAA | 17100
67 | CACCGCTTCCGTCGCTGCTGTAGTCGCTTCCTGCGG | 22300
68 | CAGCCTTCCGGCTGCGGAGCTGCTCCAGGAAGTCTC | 10800
69 | ACAGCTCCCATCCTGCTTAGAGACTTCCTGTAATCT | 6520
70 | TGCAAACTTCCTCTCTGCAGGGGGTGGGAAGTGCTG | 12600
71 | GTCAACAGGAACACAGGACTCTGACTTCCTTGTTGT | 377
72 | GAGGCGGGACTTCCTACAGCACTTCCGGCCAGAGCC | 26500
73 | TAACTAGCTCCAGGAAGGGCAGGAAATGACACATGT | 1500
74 | TTTAGTTCCGGCCTCTTTGCACGTCATTTCCGGCAC | 16200
75 | AATTTACTTCCTGGTGAATAGAGACAGGAAGTAAAT | 13800
76 | GAGGAGCGGCCGGAAGTAGCCGGAATCTCTGAAAGA | 28200
77 | GTTCGGTTCCGCCCCGTGCATTGTGCTTCCGCTCGG | 2660
78 | GAGCCGCGCAGGAAGCTGGGACCGGAACCTCGGCGG | 1920
79 | CCAATTCTCTTCCTGGACACACAGGAAGATGACATT | 1870
80 | GCGACGGAAAGAAAGCCGCCGGACCCACTTCCGGTG | 17100
